# Measured values: the supplement of paper PMC11417369
# The other results are listed elsewhere or left out.
# Tested on: PfAP2-HC AP2 domain (GST-tagged)
# Experiment: gcPBM binding intensity (ln(normalized median fluorescence intensity)); higher = stronger DNA binding
# Outline: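 In this array assay, P. falciparum DNA-binding domains with a GST tag, expressed in E. coli, were applied for 1 h to primer-extended double-stranded 36-bp intergenic genomic probes and negative controls on an Agilent 4 × 180k array. Bound protein was visualised with Alexa488 anti-GST antibody at 488 nm. Binding intensity is the highest Masliner-normalised natural-log median intensity across replicate spots of either probe orientation.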
row,Sequence,gcPBM binding intensity (ln)
1,CAACCTCATAATATTTAACACACAAAATTATATGTA [CACACA_site8496],9.66
2,AGAAAAATTATATATACACACTTATATTTATATATA [CACACA_site5555],9.67
3,AGTATACGCAAACACACACACACAAAAAAAAAAAAA [CACACA_site426],11.2
4,TATTATATTTATATTTGTACTTAAAATATTATACAC [XGTACX_site2881],9.65
5,AAATAAGAAAATCATAGTACATAGGAATAGAAGAAC [XGTACX_site3135],10.1
6,AATGTCATGATACATACACACACATACACATACACA [CACACA_site8665],10.7
7,ATATCTTATTTTCCTTGTACTTATTTCATAATTACA [XGTACX_site3894],9.82
8,TATTAAATATTGTAATGTACATATATAATATAATAT [XGTACX_site1809],9.57
9,AATTTCCCATATTACACACATACTATGATATATAAA [CACACA_site3834],9.78
10,CAATAAACCATTTTTTGTACATAAAAATAGGTATTG [XGTACX_site1892],9.5
11,TAAATATGTATAAATTGTACAAAATATATGAATAGT [XGTACX_site5659],9.89
12,TTTTTTTTTTTAAATTGTACTTATTTTATATTATAT [XGTACX_site1077],9.52
13,CATACACCCATACATACACACATACATATATATATA [CACACA_site8591],9.98
14,ATATAATGTTTCACATGTACAAACAACACAAAAAAA [XGTACX_site1899],9.88
15,AAAGAGAAATTTAAATGTACATTTGTTCTAAGTGTA [XGTACX_site3602],9.52
16,AATTATGAAAAATCAAGTACAAACAAAATCATAATT [XGTACX_site5665],9.85
17,AAAAGATATATTATATGTACTAATTATATGATAAAT [XGTACX_site4192],9.67
18,TATTATATTCTGCTTACACACATATATATATATATA [CACACA_site3060],9.87
19,TTAAAAAAAGAAAAAAAAAAAAAAAAAAAAAAACAT [CACACA_negctrl_site475],9.46
20,TATAAAAATATTTCTACACACATTAATATTTATATA [CACACA_site6661],9.7
21,GTTCTAAATATTATTGCATGTTGCACGTTTCTCTGT [TGCATGCA_site159],9.84
22,GTGATAATTGCTTGGTGTACCCACATATATATATAT [XGTACX_site1636],9.87
23,CATGTATTTTATATTACACACTAATATTATAGATAT [CACACA_site6819],9.7

row,Sequence,gcPBM binding intensity (ln)
1,TTTTTTTTTTTGTTTAAACACACGAGCTTTCTTCTT [CACACA_site4085],9.93
2,AAACATATAAACATATGTACATATAAACATATATAC [XGTACX_site5026],9.76
3,TAAAACATAAGAGACACACACACATATATATATATA [CACACA_site3643],10.9
4,ATATTCTTTTTATGTGGTACTAATTTTTTTTTTTTA [XGTACX_site3791],9.73
5,TTTTTAAAACATCACTGTACCCGTTATGGTGAACAT [XGTACX_site3483],9.54
6,TTTTTAAATAATTGAAGTACACATTTCTCTAAGTTG [XGTACX_site2846],9.41
7,AGTAAAAGAAAGCACACACACATGTATATAGGTATG [CACACA_site7759],10.9
8,TTTTTAATTATCTTTTCCCATGGTTTCTCCGTTTTT [XGTACX_negctrl_site39],9.67
9,CAAAATAAAAATAACACACACATTTATATATATACA [CACACA_site1190],10.7
10,AGCATATTATCATATTGTACATATTATAATATATAT [XGTACX_site3907],9.69
11,ATATGTTTTGTTTACGTGCACTGCTTTGTTTATATA [GTGCAC_site9622],10.5
12,ATTTCTCAATCTTAATGTACAAAAAAAAGGAAAAAG [XGTACX_site1210],9.56
13,TAAAAATTTTAATAAACACACAATGAGATATTGAAT [CACACA_site5704],9.67
14,AGCAAATCAGATAGTAGTACATTTAAATTAGACTTT [XGTACX_site4172],9.58
15,TATATATATATATGTGCATGTAATGATTCAGCATCT [TGCATGCA_site803],9.77
16,AACACAGATAAATTAACACACACACCCATATATATA [CACACA_site9310],11.2
17,CACATATAGTTATATGCACACATCTTACACATCTAT [CACACA_site5937],10.3
18,ATGAAATATCGGAACGCACACATAAATATATTTATA [CACACA_site2670],10.1
19,TAGCTTATTAATATCATACACACATAGATATATTTA [CACACA_site3105],9.72
20,CAATTTGGGGTGTACACACACCTTATTTAAATTAAA [CACACA_site6663],9.79
21,TTGAACTCTCTTACGCGTACGTGTTATTATGAAAAT [XGTACX_site6265],9.74
22,ATCATGTTATATACATGTACATATATATATATATAA [XGTACX_site609],9.91
